From PubChem BioAssay AID485294 (National Center for Advancing Translational Sciences (NCATS), 2010)
Screen size: about 370,000 compounds; about 150 (0.041%) were called active. This list was built around the results that the source calls inconclusive (neither active nor inactive); the mix of calls is not that of the screen. Calls come from the whole dose curve; as a rule, active = well fitted inhibition curve with a large enough effect; inconclusive = small, poorly fitted or top-dose-only effect; inactive = flat fitted curve, though single readings scatter. Potencies of inconclusive entries are left out as doubtful fits.

molecular target: Beta-lactamase (Escherichia coli (strain K12)) (UniProt P00811); assay: qHTS Inhibitors of AmpC Beta-Lactamase (assay with detergent); conditions: AmpC hydrolysis of nitrocefin, absorbance 480 nm, 0.01% Triton; series mostly up to 114 µM; note: nearly all actives have a fitted effect of over 25% in size
UniProt P00811, sequence (P00811 whole entry, looked up): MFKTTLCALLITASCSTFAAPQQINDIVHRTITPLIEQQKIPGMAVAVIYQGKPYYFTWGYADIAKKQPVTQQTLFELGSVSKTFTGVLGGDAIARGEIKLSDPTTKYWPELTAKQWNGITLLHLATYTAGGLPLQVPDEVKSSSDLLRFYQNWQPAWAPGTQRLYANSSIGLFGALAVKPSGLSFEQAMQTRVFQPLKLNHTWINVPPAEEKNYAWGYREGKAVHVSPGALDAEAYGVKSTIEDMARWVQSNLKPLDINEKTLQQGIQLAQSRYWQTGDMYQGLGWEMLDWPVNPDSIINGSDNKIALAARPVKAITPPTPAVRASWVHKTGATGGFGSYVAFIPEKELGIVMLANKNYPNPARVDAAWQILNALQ
How it was run: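 20 mM phosphate pH 7.0 + 0.01% (detergent screen) or 0.0001% Triton X-100; 5.3 nM AmpC reagent; cpd preinc 15 min RT; nitrocefin (800 uM stock) to start; A480 q20 s × 4 min; Activity was normalised to no-enzyme and no-compound control wells.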
Potency is the fitted concentration of half-maximal effect; tags give direction and shape of the fitted curve.

Question: Which Potency does the source give for `O=C1c2ccccc2C(=O)N1CCCC[C@]12Cc3ccccc3C(O1)c1c(c3ccccc3oc1=O)O2` here?
Answer: inconclusive [inhibitor, single point]

Question: Which Potency does the source give for `COCCNC(=O)C1CCN(Cc2cc3ccccc3n2Cc2ccc(C)cc2)CC1` here?
Answer: inactive

Question: How did the Potency turn out when `CC1CN(S(=O)(=O)c2cccc(C(F)(F)F)c2)CC(C)O1` (configuration not stated) was run?
Answer: inconclusive [inhibitor, full curve, poor fit]

Question: With `Cc1ccc(C)c(-c2csc(NC(=O)C3=COCCO3)n2)c1` as the compound, how does the Potency read?
Answer: inactive

Question: With `CCCCNC(=O)CC1Nc2ccccc2NC1=O` (configuration not stated) as the compound, how does the Potency read?
Answer: inconclusive [inhibitor, full curve]

Question: How did the Potency turn out when `COc1ccc(CNC(=O)CS(=O)Cc2nc(-c3ccc(C)cc3)oc2C)cc1` (configuration not stated) was run?
Answer: inconclusive [inhibitor, full curve, poor fit]

Question: Which Potency does the source give for `CCOC(=O)C(NC(=O)NCc1ccc(OC)cc1)(OCC)C(F)(F)F` (configuration not stated) here?
Answer: inconclusive [inhibitor, single point]

Question: With `O=C(CNS(=O)(=O)c1ccc(Br)s1)NC1CCCc2ccccc21` (configuration not stated) as the compound, how does the Potency read?
Answer: inconclusive [inhibitor, partial curve, poor fit]

Question: `CCOC(=O)Cc1nnc(NC(=O)C(CC)Sc2nnc3c4ccccc4n(C)c3n2)s1` (configuration not stated) was tested. Which Potency did it give?
Answer: inconclusive [inhibitor, partial curve, poor fit]

Question: For `Cc1ccc(C(c2nnnn2C2CCCC2)N2c3ccccc3CC2C)cc1` (configuration not stated), which Potency is on record?
Answer: inconclusive [inhibitor, full curve, poor fit]

Question: Which Potency does the source give for `Cc1cccc(N2C(=O)C3C4CC(C(Br)C4Br)C3C2=O)n1` (configuration not stated) here?
Answer: inconclusive [inhibitor, single point]

Question: Which Potency does the source give for `Cc1ccc(C(=O)NC(=S)Nc2cccc(-c3nc4ccccc4s3)c2)cc1` here?
Answer: inactive

Question: With `C#CC[N+](C)(C)CC#Cc1ccc(Cl)cc1` as the compound, how does the Potency read?
Answer: inconclusive [inhibitor, full curve]

Question: `Cc1[nH]c2ccccc2c1C(=O)CN1CCCC1` was tested. Which Potency did it give?
Answer: inconclusive [inhibitor, single point]

Question: With `O=C(N/N=C1\CCCc2ccccc21)c1cccc([N+](=O)[O-])c1` as the compound, how does the Potency read?
Answer: inconclusive [inhibitor, full curve]

Question: How did the Potency turn out when `Cc1onc(-c2c(F)cccc2Cl)c1C(=O)NC(=S)NCc1cccnc1` was run?
Answer: inconclusive [inhibitor, full curve, poor fit]

Question: How did the Potency turn out when `CCOC(=O)N1CCN(C(=O)c2ccc(N3CCCC3=O)cc2)CC1` was run?
Answer: inconclusive [inhibitor, single point]

Question: For `Cc1ccc(/C=C(\CCC(=O)O)c2nc3ccccc3s2)cc1[N+](=O)[O-]`, which Potency is on record?
Answer: inconclusive [inhibitor, partial curve, poor fit]

Question: Which Potency does the source give for `CCc1ccc(-c2cc(C(F)(F)F)n3nc(C(=O)Nc4cnn(Cc5ccc(C)cc5)c4)cc3n2)s1` here?
Answer: inconclusive [inhibitor, full curve]

Question: With `COc1ccc(NC(=O)CN(C)C(=O)Cc2c(C)nc3ccccc3c2C)cc1` as the compound, how does the Potency read?
Answer: inconclusive [inhibitor, full curve, poor fit]

Question: How did the Potency turn out when `CCOCCOC(=O)C1=C(C)N(C)C(=O)NC1c1ccccc1F` (configuration not stated) was run?
Answer: inconclusive [inhibitor, full curve, poor fit]

Question: For `COc1ccc(-c2cn[nH]c2N)c(OC)c1`, which Potency is on record?
Answer: inactive

Question: How did the Potency turn out when `CCOc1ccc(-c2[nH]ncc2Oc2ccccc2OC)c(O)c1` was run?
Answer: inconclusive [inhibitor, full curve, poor fit]

Question: For `Oc1ccc2c(ccc3[nH]cnc32)c1`, which Potency is on record?
Answer: inactive

Question: How did the Potency turn out when `COCc1cc(C)nc(SCC(=O)Nc2ccc(C)c(C)c2)c1C#N` was run?
Answer: inconclusive [inhibitor, partial curve]

Question: Which Potency does the source give for `CCN1CCN(c2ncnc3c2cnn3-c2ccc(F)cc2)CC1` here?
Answer: inactive

Question: With `CCc1ccc(N2C(=O)c3cc(N4CCOCC4)c([N+](=O)[O-])cc3C2=O)cc1` as the compound, how does the Potency read?
Answer: inconclusive [inhibitor, partial curve, poor fit]

Question: How did the Potency turn out when `Cc1ccccc1-c1cc(C(=O)Nc2sc(C(=O)OC(C)C)c(C)c2C#N)c2ccccc2n1` was run?
Answer: inconclusive [inhibitor, full curve, poor fit]

Question: Which Potency does the source give for `Cn1cc(Br)c(-c2cccc(NC(=O)CCCC(=O)O)c2)n1` here?
Answer: inactive

Question: Which Potency does the source give for `CCOc1ccc(C2NC(=O)c3ccccc3O2)cc1` (configuration not stated) here?
Answer: inconclusive [inhibitor, full curve, poor fit]

Question: With `Cc1ccc(Nc2cc(=O)oc3ccccc23)c(C)c1` as the compound, how does the Potency read?
Answer: inactive

Question: With `COc1ccccc1NC(=O)CSc1ccc2nnc(-c3ccccn3)n2n1` as the compound, how does the Potency read?
Answer: inconclusive [inhibitor, full curve, poor fit]

Question: `CC(=O)NNC(=S)Nc1cc(S(=O)(=O)N(C)C)ccc1C` was tested. Which Potency did it give?
Answer: inactive

Question: For `Cc1nc2scc(C)n2c(=O)c1S(=O)(=O)N1CCN(c2ccccn2)CC1`, which Potency is on record?
Answer: inconclusive [inhibitor, single point]

Question: Which Potency does the source give for `O=C(NC1CCCC1)C(c1ccc(F)cc1)N(Cc1ccc(F)cc1)C(=O)c1ccn[nH]1` (configuration not stated) here?
Answer: inconclusive [inhibitor, partial curve, poor fit]

Question: Which Potency does the source give for `COCCCNc1ncnc2nc[nH]c12` here?
Answer: inconclusive [inhibitor, full curve, poor fit]

Question: Which Potency does the source give for `COC(=O)CCC(=O)Nc1ccc(N=Nc2ccccc2)cc1` here?
Answer: inconclusive [inhibitor, full curve, poor fit]

Question: For `O=C(Nc1ccc(C(F)(F)F)cn1)Nc1cccs1`, which Potency is on record?
Answer: inconclusive [inhibitor, partial curve]

Question: For `CCOC(=O)[C@H]1[C@H]2COc3cc(OC)ccc3[C@@H]2N2C(=O)c3cc(F)ccc3NC(=O)[C@@]12C`, which Potency is on record?
Answer: inactive

Question: How did the Potency turn out when `O=C(Cn1nnc(-c2ccccc2)n1)OC1CCOC1=O` (configuration not stated) was run?
Answer: inconclusive [inhibitor, partial curve]

Question: Which Potency does the source give for `Cc1ccc(C(=O)Nc2ccccc2OC(F)F)cc1` here?
Answer: inconclusive [inhibitor, single point]

Question: How did the Potency turn out when `CCCN(CC(=O)Nc1ccc(F)c(F)c1F)C(=O)c1cc([N+](=O)[O-])ccc1N1CCOCC1` was run?
Answer: inconclusive [inhibitor, full curve, poor fit]
